# Results from PubChem BioAssay AID1345083 (National Center for Advancing Translational Sciences (NCATS), 2018).
# The campaign covered roughly 94,000 compounds. About 6,200 (6.6%) were called active. Inconclusive results, whose numbers are uncertain, are shown with a selection of clear calls. Calls come from the whole dose curve; as a rule, active = well fitted inhibition curve with a large enough effect; inconclusive = small, poorly fitted or top-dose-only effect; inactive = flat fitted curve, though single readings scatter. Potencies beside an inconclusive call are fits to weak or partial responses and may not hold up.
# Assay: Cytotoxic Profiling in HEK 293 Cell Line of Diverse Libraries Using Quantitative High-Throughput Screening; note: nearly all actives have a fitted effect of over 60% in size
# Conditions: HEK 293 viability, ATP luminescence (CellTiter-Glo), 48-72 h; activity change, negative = cytotoxicity: at 115 µM (top of the series) unless noted; series mostly up to 115 µM
# Summary of the method: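 Viability of HEK 293 cells, plated at 250 cells/well, was judged by cellular ATP after compound treatment for 48 or 72 hr. Luminescence was imaged 10 min after CellTiter-Glo addition at room temperature.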
# % is set by controls: 0 for no effect and ±100 for the full control effect; potency is the fitted concentration of half-maximal effect; tags give direction and shape of the fitted curve.
SMILES,Potency,"activity change, negative = cytotoxicity"
Cc1ccc([S+](=O)([O-])N2CC(=O)N(Cc3ccc(Cl)cc3)CC(O)C2)cc1 (stereo not given),"inconclusive: 50.1 µM [inhibitor, partial curve, poor fit]",–
O=C(c1cc2ccccc2[nH]1)N1CCNc2cnc(Nc3ccccc3)nc2C1,active: 79.4 µM,–
Cn1ncc2c(C(=O)N3CCC(c4ccccc4)CC3)cc(-c3cccc(F)c3)nc21,"inconclusive: 79.4 µM [inhibitor, partial curve, poor fit]",–
CCOC(=O)C1CCN(C(=O)c2cc(-c3ccc(OC)cc3)nc3c2cnn3C)CC1,"inconclusive: 50.1 µM [inhibitor, partial curve, poor fit]",–
Cn1ncc2c(C(=O)NCc3ccc(F)cc3)cc(-c3ccccc3F)nc21,–,inactive: -11.9%
CC1CCCCC1Nc1ncnc2c1CN(C1CCNCC1)C(=O)CN2C (stereo not given),–,inactive: -18%
COCCOCC(=O)N1CCC[C@H](n2c(=O)n(Cc3ccccc3)c3cccnc32)C1,"inconclusive: 50.1 µM [inhibitor, partial curve, poor fit]",–
COc1ccc(-c2noc(-c3nnn4c3COC(c3ccc(C)cc3C)C4)n2)c(OC)c1 (stereo not given),–,inactive: -8.38%
Cc1cc(NC(=O)c2ccc3c(c2)N(C)C2CCCCCN2C3=O)ccc1F (stereo not given),"inconclusive: 56.2 µM [inhibitor, partial curve, poor fit]",–
CC(C)NC(=O)c1cc(-c2ccc(Cl)cc2Cl)c2nncn2n1,"inconclusive: 100 µM [inhibitor, partial curve, poor fit]",–
O=C(Nc1cccc(F)c1)c1cc(-c2ccc[nH]2)n[nH]1,–,inactive: -9.55%
C[S+](=O)([O-])c1ccc(-c2cc(C(=O)N3CCCC3)nn3cccc23)cc1,"inconclusive: 89.1 µM [inhibitor, single point]",–
COc1ccc2[nH]c(C(=O)NCC(=O)N3CCCCCCNC(=O)CC3c3ccccc3)cc2c1 (stereo not given),"inconclusive: 89.1 µM [inhibitor, single point]",–
Cc1cc(Cl)ccc1OCC(=O)N1CCC([C@@H]2CNC[C@H]2CO)CC1,"inconclusive: 89.1 µM [inhibitor, single point]",–
Cc1ccc([C@H]2C[C@@H](O)[C@@H](O)[C@@H]2NS(=O)(=O)c2ccccc2)cc1,"inconclusive: 70.8 µM [inhibitor, partial curve]",–
O=C(NCCNC(=O)c1cccc(-c2ccsc2)c1)Nc1ccccc1,"inconclusive: 50.1 µM [inhibitor, partial curve, poor fit]",–
c1ccc(-c2ccccc2Nc2cnc3ccc(-n4ccnc4)nn23)cc1,active: 31.6 µM,–
O=C(NCc1ccccc1F)c1cc(Br)cn2ccnc12,"inconclusive: 89.1 µM [inhibitor, single point]",–
Cc1ccc(-n2nc(C)c([C@@H]3C=C[C@@H](NC(=O)Nc4ccc(Cl)cc4)C3)c2C)cc1Cl,active: 15.8 µM,–
Cc1cnc(CCNC(=O)c2cccs2)n1Cc1ccc(F)cc1,–,inactive: -1.54%

SMILES,Potency,"activity change, negative = cytotoxicity"
COc1ccc(Nc2cnc3ccc(-c4cccc(CO)c4)nn23)cc1,"inconclusive: 79.4 µM [inhibitor, partial curve]",–
CCN1c2cc(C(=O)NC3CCCCCC3)ccc2C(=O)N2CCCCCC21 (stereo not given),"inconclusive: 25.1 µM [inhibitor, partial curve, poor fit]",–
O=C(c1cc(F)ccc1F)N1CCC(n2cc(-c3nc(-c4ccccc4)no3)nn2)C1 (stereo not given),"inconclusive: 39.8 µM [inhibitor, partial curve, poor fit]",–
CN1CCC(Oc2ccc(NC(=O)CCCc3ccccc3)cn2)CC1,"inconclusive: 89.1 µM [inhibitor, single point]",–
COc1ccc(C(=O)NCCC2CCN(C(=O)Nc3cc(F)cc(F)c3)CC2)cc1,"inconclusive: 100 µM [inhibitor, single point]",–
Cn1ccnc1C(=O)N1CCC(N2C(=O)C3(CCCCC3)C2c2ccccc2)CC1 (stereo not given),–,inactive: -5.23%
CN1[C@@H](CCC(=O)Nc2ccccc2)CNC(=O)[C@@H]2[C@H]1CCN2C1CCCCC1,"inconclusive: 79.4 µM [inhibitor, partial curve]",–
O=S(=O)(c1cccs1)N1CCC(n2cnnc2-c2ccccc2)CC1,–,inactive: 4.63%
CCCc1nc(C(=O)N2CCN(c3nc4ccccc4s3)CC2)cs1,"inconclusive: 50.1 µM [inhibitor, partial curve, poor fit]",–
COCCNC(=O)CN1CN(c2ccccc2)C2(CCN(C(=O)NC3CCCCC3)CC2)C1=O,"inconclusive: 100 µM [inhibitor, partial curve, poor fit]",–
COC(=O)[C@@H]1Cc2ncn(Cc3ccc(Cl)cc3)c2CN1C(=O)c1ccc(C(F)(F)F)cc1,"inconclusive: 56.2 µM [inhibitor, partial curve, poor fit]",–
O=C(NCCCN1CCCc2ccccc21)c1cccnc1N1CC2CC(C1)[C@H]1CCCC(=O)N1C2 (stereo not given in full),"inconclusive: 89.1 µM [inhibitor, single point]",–
O=C(NCc1ccccc1)c1noc(-c2ccc3c(c2)OCO3)n1,"inconclusive: 50.1 µM [inhibitor, partial curve, poor fit]",–
O=c1[nH]c(C2CCCN(Cc3ccc(Cl)cc3)C2)nc2ccc(F)cc12 (stereo not given),"inconclusive: 25.1 µM [inhibitor, full curve, poor fit]",–
O=[N+]([O-])c1cccc(-c2noc([C@@H]3C[C@@H](O)CN3CC3CCCCC3)n2)c1,active: 63.1 µM,–
O=C([C@@H]1C[C@H](F)CN1S(=O)(=O)c1cccc(Br)c1)N1CCCCC1,–,inactive: -26.1%
O=C(N1CCC(c2nc(-c3ccccc3)no2)C1)C1(c2ccccc2)CC1 (stereo not given),"inconclusive: 35.5 µM [inhibitor, partial curve, poor fit]",–
COC(=O)CNC(=O)C1CCCN(c2nccc(Nc3ccc(OC)cc3)n2)C1 (stereo not given),"inconclusive: 89.1 µM [inhibitor, single point]",–
Cc1noc(-c2ccccc2Cl)c1C(=O)NCCc1cccs1,"inconclusive: 89.1 µM [inhibitor, partial curve, poor fit]",–
Cc1nn2c(c1-c1ccccc1Oc1ccccc1)N(C(=O)COc1ccccc1)CCC2,active: 79.4 µM,–
